Measured values taken from article PMC5065627.
No constants are given. Whether binding was seen depends on the method and setting. Some results given as binding are weak or reduced against the parent protein; the word gives no strength.

B1: TCP19, prey of the transcription factor library (protein, UniProt Q9LT89 1-293)
chain: MESNHEGNAIQVIDQVTTMTHLSDPNPKTKPGMMLMKQEDGYLQPVKTKPAPKRPTSKDRHTKVEGRGRRIRMPAGCAARVFQLTRELGHKSDGETIRWLLERAEPAIIEATGTGTVPAIAVSVNGTLKIPTSSPVLNDGGRDGDGDLIKKRRKRNCTSDFVDVNDSCHSSVTSGLAPITASNYGVNILNVNTQGFVPFWPMGMGTAFVTGGPDQMGQMWAIPTVATAPFLNVGARPVSSYVSNASDAEAEMETSGGGTTQPLRDFSLEIYDKRELQFLGGSGNSSPSSCHET
B2: TCP3, prey of the transcription factor library (protein, UniProt Q9MAH8 1-391)
chain: MAPDNDHFLDSPSPPLLEMRHHQSATENGGGCGEIVEVQGGHIVRSTGRKDRHSKVCTAKGPRDRRVRLSAPTAIQFYDVQDRLGFDRPSKAVDWLITKAKSAIDDLAQLPPWNPADTLRQHAAAAANAKPRKTKTLISPPPPQPEETEHHRIGEEEDNESSFLPASMDSDSIADTIKSFFPVASTQQSYHHQPPSRGNTQNQDLLRLSLQSFQNGPPFPNQTEPALFSGQSNNQLAFDSSTASWEQSHQSPEFGKIQRLVSWNNVGAAESAGSTGGFVFASPSSLHPVYSQSQLLSQRGPLQSINTPMIRAWFDPHHHHHHHQQSMTTDDLHHHHPYHIPPGIHQSAIPGIAFASSGEFSGFRIPARFQGEQEEHGGDNKPSSASSDSRH

Molecular target: T1, LIGHT-REGULATED WD1 (LWD1), yeast two-hybrid bait (Arabidopsis thaliana) (UniProt Q9LPV9)
T1 sequence: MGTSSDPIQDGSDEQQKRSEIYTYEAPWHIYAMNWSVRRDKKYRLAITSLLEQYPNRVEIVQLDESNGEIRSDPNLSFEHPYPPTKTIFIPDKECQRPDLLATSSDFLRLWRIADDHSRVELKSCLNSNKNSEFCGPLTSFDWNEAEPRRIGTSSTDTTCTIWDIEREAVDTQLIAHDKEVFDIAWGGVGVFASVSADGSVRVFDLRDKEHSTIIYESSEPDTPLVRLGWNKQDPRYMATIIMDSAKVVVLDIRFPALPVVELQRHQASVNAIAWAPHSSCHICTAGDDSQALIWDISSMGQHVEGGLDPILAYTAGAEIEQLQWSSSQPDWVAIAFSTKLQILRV
Test: two-hybrid; library screen: LWD1 as bait against a prey library of about 1,400 Arabidopsis full-length transcription factors; positive clones sequenced

Row | binding | Binder
1 | binds | B1
2 | binds | B2
